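Growth conditions: 96-well plates. Treatment: test compound, 48 hours, 5 concentrations. Analysis: linear interpolation between bracketing concentrations; unreached endpoints set to highest concentration. Abbreviation: GI50, concentration required for 50% inhibition of growth.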 The source made the active and inactive calls. Cut-off read from the data, not from the text of the source: active = GI50 up to about 1.1 µM and inactive = higher.

The subject of the test is NCI-H322M. The experiment in a line: NCI anticancer screen, dose series, 48 h.
Regarding `Cc1cccc2c1nc1n2C(=O)c2ccccc2-1`, the GI50 was inactive: > 100 µM.

With `CCOC(=O)c1cccn1S(=O)(=O)c1cc(Cl)ccc1NC(=O)CC`, the GI50 is inactive: 54.5 µM.

For the molecule `N=C(N)NC(=N)Nc1ccccc1.Sc1nc2ccccc2s1`, the GI50 was inactive: > 100 µM.

For the molecule `COc1nc(C#CC(C)(C)C)nc(OC)n1`, the GI50 is inactive: 23.5 µM.

On to `CC(C)(C)c1cc(C(=O)O)c(C(c2ccccc2)c2ccccc2C(=O)O)c(C(=O)O)c1` (configuration not stated), for which the GI50 is inactive: > 100 µM.

As for `CCCCC(=C=C1CCCCC1O)C1CCCN1C(=O)OC(C)(C)C` (configuration not stated), the GI50 is inactive: 16.1 µM.

For `COc1ccc(NC(=O)CC(=O)N/N=C/c2ccc(N(CCC#N)S(=O)(=O)c3ccccc3)cc2)cc1`, the GI50 was inactive: > 100 µM.

With `C=C(/C=C/C=C(\CO)CCC=C(C)C)[C@H]1CCC2([C@H](CCCO)/C(=C(/C)C=O)CC[C@]2(C)O)[C@H]1O` (some centres not stated), the GI50 was inactive: > 100 µM.

With `CC(C)C(=O)N1Cc2cc(Cl)cc(Cl)c2OC(=O)c2ccccc21`, the GI50 is inactive: 42.3 µM.

As to `Cc1ccc(-n2cc(-c3ccc(Cl)cc3)c3c2N=CN2N=C(c4ccco4)NC32)cc1` (configuration not stated), the GI50 was inactive: 56.2 µM.

For the molecule `COc1ccc(C(=O)Cc2ccc(Cl)cc2)cc1OC`, the GI50 is inactive: > 100 µM.

Regarding `CCOC(=O)CCSc1nc2ccc(I)cc2c(=O)n1Cc1ccccc1`, the GI50 was inactive: 30 µM.

For the molecule `Cc1ccc(O)c(C(c2ccc(C(c3cc(C)ccc3O)c3cc(C)ccc3O)cc2)c2cc(C)ccc2O)c1`, the GI50 was inactive: 1.56 µM.

Consider `C=CC/N=C1\NC(=O)C(CC(=O)Nc2ccc(C)cc2)S1` (configuration not stated), for which the GI50 is inactive: > 100 µM.

Turning to `COc1ccc(N[C@H](C[S+]([O-])c2ccc(C)cc2)C(F)(F)F)cc1` (some centres not stated), the GI50 is inactive: > 100 µM.

For `N[C@H](CCC(=O)NCP(=O)(O)O)C(=O)O`, the GI50 is inactive: > 100 µM.

As to `COP1(=O)NCc2ncccc2O1` (configuration not stated), the GI50 is inactive: > 100 µM.

For the molecule `CC(/C=C/C=C\C=C\C=C(/C)C(=O)NC(C)CO)=C\C(C)C(O)/C(C)=C/C(C)CCc1ccccc1` (configuration not stated), the GI50 is inactive: 1.54 µM.

Turning to `O=C(OCC1CC(C2(O)CCCCC2)C(=O)O1)c1ccccc1` (configuration not stated), the GI50 is inactive: > 100 µM.

For `CCOC(=O)CC[C@@H](NC(=O)c1ccc(NCc2ccc3nc(OC)c(OC)nc3c2)cc1)C(=O)OCC`, the GI50 is inactive: 57.9 µM.

With `C/C(=N\NC(=O)c1ccccc1O)C1=CNc2ccccc2S1`, the GI50 was inactive: 4.68 µM.

Turning to `CN(C)CCNC(=O)c1cccc2c(NC(CS)C(=O)O)c3ccccc3nc12` (configuration not stated), the GI50 was inactive: 9.2 µM.

With `OCC(O)C(O)C(O)c1nnn[nH]1` (configuration not stated), the GI50 was inactive: > 100 µM.

With `CCN(CC)CCOc1ccc(N2C(=O)c3cccc4cc([N+](=O)[O-])cc(c34)C2=O)cc1`, the GI50 is inactive: 15.1 µM.

As for `COC(=O)C(CCSC)NC(=O)CNC(=O)CSc1nnc(COc2ccc(Cl)cc2)n1-c1ccccc1` (configuration not stated), the GI50 is inactive: 18.2 µM.

In the case of `O=C1C=CC(=O)c2c1ccc1c3ccccc3n(-c3ccccc3[N+](=O)[O-])c21`, the GI50 was inactive: 16.9 µM.

For the molecule `Oc1cccc(/C=N/N=c2/[nH][nH]/c(=N/N=C/c3cccc(O)c3)c3ccccc23)c1`, the GI50 was inactive: 22.2 µM.

For the molecule `CN(N=O)C(=O)Nc1c[nH]c(=O)[nH]c1=O`, the GI50 is inactive: > 100 µM.

Regarding `Cc1ccc(S(=O)(=O)OCCn2cnc3nc(NC(=O)c4ccccc4)[nH]c(=O)c32)cc1`, the GI50 was inactive: > 100 µM.

Take `COCCCCCC(=O)CP(=O)(OC)OC`: the GI50 is inactive: > 100 µM.

Take `O=C(CN1c2ccccc2Sc2ccccc21)n1cnc2ccccc21`: the GI50 is inactive: > 100 µM.

As to `CC1=C(O)C(=O)C2C(=O)C1C(C)C2c1ccccc1` (configuration not stated), the GI50 is inactive: > 100 µM.

As to `COC(=O)[C@]12CC[C@H]3CC[C@H]([C@H]31)[C@H](c1ccccc1)N2`, the GI50 is inactive: 18.5 µM.

Turning to `c1ccc2c(c1)CCc1c-2n(CCN2CCOCC2)c2ccccc12`, the GI50 is inactive: > 100 µM.

`COc1cc(S(=O)(=O)Nc2ccc(-c3csc(N4C(=O)C(Cl)C4c4ccccc4O)n3)cc2)ccc1Cl` (configuration not stated): the GI50 is active: 0.655 µM.

For the molecule `COc1cc(/C=N\O)nc(-c2ccccn2)c1`, the GI50 was active: 0.228 µM.

In the case of `CC1=C(C(=O)CC(=O)C(=O)Nc2cc(C)ccc2C)Sc2ccccc2N1`, the GI50 was inactive: > 100 µM.

With `COC(=O)CCC(=O)NC1=C(NCc2ccccc2)C(=O)c2ccccc2C1=O`, the GI50 was inactive: 43.4 µM.

For `CCN(CC)c1nc(N(C)C)c2ccc(OC)cc2n1`, the GI50 is inactive: 10.3 µM.

In the case of `CC1Oc2c(c(O)cc3oc(=O)cc(-c4ccccc4)c23)C(=O)C1C` (configuration not stated), the GI50 is inactive: > 100 µM.

As for `CCCCCCCCCCC/C(=N/O)c1ccc(O)c2ncccc12`, the GI50 was inactive: 11 µM.

On to `CCOc1ccc(NC2=NC(=O)C(CC(=O)Nc3ccccc3[N+](=O)[O-])S2)cc1` (configuration not stated), for which the GI50 was inactive: > 100 µM.

Take `COc1cc2c([C@@H](OC(=O)c3ccccc3)c3ccc4c(c3)OCO4)nccc2c(OC)c1OC`: the GI50 was inactive: > 100 µM.

Regarding `CC(C)OP(=O)(CN(C)/C(F)=N\C(F)(F)F)OC(C)C`, the GI50 is inactive: > 100 µM.

For the molecule `O=C1CC(O)c2c(Cl)sc(Cl)c21` (configuration not stated), the GI50 is inactive: 18.9 µM.

For the molecule `Cc1cc(O)nc(NNC(C#N)c2cccc([N+](=O)[O-])c2)n1` (configuration not stated), the GI50 was inactive: > 100 µM.

For the molecule `CCSc1nnc(-c2ccccc2)nc1Cc1ccc(OC)cc1`, the GI50 was inactive: > 100 µM.

With `O=C1c2cccnc2S(=O)(=O)N1c1ccc(Oc2ccccc2)cc1`, the GI50 is inactive: > 100 µM.

On to `O=c1[nH]c(Nc2nc3ccccc3[nH]2)nc2c1CCC2`, for which the GI50 is inactive: > 100 µM.

As for `COc1cc(C2SC(=N)Nc3c2c(C)nn3C(=O)c2ccccc2O)cc(OC)c1OC` (configuration not stated), the GI50 was inactive: > 10 µM.

On to `CC(C)(O)c1cc2c(cc1C(C)(C)O)-c1ccccc1-2`, for which the GI50 was inactive: > 100 µM.

For the molecule `CCOC(=O)CC[C@H](NC(=O)[C@H](N)Cc1ccc(N(CCCl)CCCl)cc1)C(=O)OCC`, the GI50 was inactive: 24.5 µM.

As for `CCOC(=O)C(NC(=O)Nc1ccc(Cl)c(Cl)c1)C(F)(F)F` (configuration not stated), the GI50 is inactive: > 100 µM.

With `Cc1ccc(/N=C/C=C(\Nc2ccc(C)cc2)c2ccc3ccccc3c2)cc1`, the GI50 was active: 0.655 µM.

`O=C1C(=Cc2ccc(O)cc2)N=C(c2ccccc2)N1n1c(-c2ccccc2)nc2ccccc2c1=O`: the GI50 is inactive: 74.6 µM.

`O=C(Cc1nc2ccccc2s1)C(=O)Nc1ccc(Cl)cc1`: the GI50 is inactive: > 100 µM.

For the molecule `CC1(C)CC(=O)c2c(nc3c(ccc4ccccc43)c2-c2ccc(NC(=O)CCCC(=O)Nc3ccc(-c4c5c(nc6c4ccc4ccccc46)CC(C)(C)CC5=O)cc3)cc2)C1`, the GI50 was inactive: > 100 µM.

Take `C=C1C(=O)OC2CC(C)C3CC(O)OC(OCC)C3(C)CC12` (configuration not stated): the GI50 is inactive: 25.4 µM.

For `O=C(Nc1ccc(Cl)c(Cl)c1)C(=O)Nn1c(S)nc2ccccc2c1=O`, the GI50 was inactive: > 100 µM.

`Cc1c(C(=O)C/C(=N/NC(=O)C[N+](C)(C)C)C(=O)Nc2ccc(Cl)cc2)[n+]([O-])c2ccccc2[n+]1[O-]`: the GI50 was inactive: > 100 µM.

`COc1ccc(/C=C2\N=C(c3ccccc3)N(Nc3nnc(NN4C(=O)/C(=C/c5ccc(OC)cc5)N=C4c4ccccc4)c4ccccc34)C2=O)cc1`: the GI50 was inactive: 41.3 µM.

Consider `COC(=O)/C(C#N)=C1\NN=NN1CCCN1CCOCC1`, for which the GI50 is inactive: > 100 µM.

For `NC(=O)[C@H](Cc1ccc(O)cc1)NC1=C(Cl)C(=O)c2c(O)ccc(O)c2C1=O`, the GI50 is inactive: 8.53 µM.

With `CC(C)(C)C1=CC(=C2C=Cc3ccccc3O2)C=C(C(C)(C)C)C1=O`, the GI50 was inactive: 6.08 µM.

Take `O=C(O)c1cc2ccccc2c(/N=N\c2cc(C(F)(F)F)ccc2Cl)c1O`: the GI50 was inactive: > 100 µM.

In the case of `COc1cc(/C=C2\C(=O)N(c3cc(Cl)ccc3Cl)C(c3ccccc3)S2(=O)=O)cc(OC)c1OC` (configuration not stated), the GI50 was inactive: > 100 µM.

Consider `CSC1=N/C(=C\c2cccs2)C(=O)N1CN1CCOCC1`, for which the GI50 was inactive: > 100 µM.

Regarding `COC(=O)C(CCC1(C)OCCO1)=[N+]=[N-]`, the GI50 is inactive: > 100 µM.

As to `OC(Cc1ccc2ccccc2n1)(C(F)(F)Cl)C(F)(F)Cl`, the GI50 is inactive: > 10 µM.

As to `CC(C)(C)/N=N/C(C)(C)N=C=O`, the GI50 was inactive: > 100 µM.

Consider `O=C1C(Cl)=C(N2CCN(CCOCCO)CC2)C(=O)c2ccccc21`, for which the GI50 was inactive: 19.2 µM.

Take `OCCCN(CCc1ccc(Cl)c(Cl)c1)CCN1CCCC1`: the GI50 is inactive: 53 µM.

Take `CCOP(=O)(OCC)/C(C#N)=C/c1cccn1C(C)C`: the GI50 was inactive: > 100 µM.

On to `O=C1C(Cl)=C(N2CCN(CCOCCO)CC2)C(=O)c2c(O)ccc(O)c21`, for which the GI50 was inactive: 1.61 µM.

Turning to `COC(=O)[C@@]1(C(C)CC(=O)O)CCCCC1=O` (some centres not stated), the GI50 is inactive: > 100 µM.

For `FC(F)(F)c1ccc2c(c1)nc(Cc1ccc(Cl)c(Cl)c1)n2CC1CCCN2CCCCC12` (configuration not stated), the GI50 is inactive: 13.6 µM.

`C[C@H]1O[C@@H](c2c(O)ccc3ccccc23)C[C@@H](N(C)C)C1O` (some centres not stated): the GI50 is inactive: > 100 µM.

In the case of `O=C1c2ccccc2-c2nc(-c3cccc([N+](=O)[O-])c3)nnc21`, the GI50 is inactive: 4.71 µM.

As to `COc1cccc(-c2cc(O)c3cc(N)ccc3n2)c1`, the GI50 was inactive: 12.6 µM.

Regarding `CO[C@H]1C[C@H](O[C@H]2CC[C@]3(C=O)[C@H]4CC[C@]5(C)[C@@H](C6=CC(=O)OC6)CC[C@]5(O)[C@@H]4CC[C@]3(O)C2)O[C@H](C)[C@H]1O[C@@H]1O[C@H](CO)[C@@H](O)[C@H](O)[C@H]1O`, the GI50 is active: 1.57e-05 µM.

For the molecule `CCOC(=O)C1=C(C)C2C=C(c3cccs3)CC(c3ccc(Cl)cc3)=C2OC1=O` (configuration not stated), the GI50 was inactive: > 100 µM.

Regarding `Nc1ccccc1N`, the GI50 was inactive: > 100 µM.

(Values after ChEMBL document CHEMBL1201862, “PubChem BioAssay data set” (2004).)
